Measurements from PubChem BioAssay AID1346428 (National Center for Advancing Translational Sciences (NCATS), 2018).
Where “and” joins values, the source holds several entries; their conditions need not be identical. Equal values may be shown once. Among all 48,000 compounds or so, about 1,200 (2.5%) were called active. Another 2% or so got no clear call; they are omitted.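 The calls were made as follows: active = activation of at least 60% and not above a set upper limit (about 1 call in 100 departs from these limits); inconclusive = activation of 40% to 60%, or above that upper limit; inactive = activation under 40%.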 This is one part of the list.

biological target: Probable G-protein coupled receptor 32 (Homo sapiens) (UniProt O75388); assay: qHTS for Agonists of Human Resolvin D1 Receptor DRV1; conditions: CHO-K1 GPR32 beta-arrestin PathHunter luminescence, 90 min; at 76.9 µM; active compounds read high; zero percent set by DMSO-only wells; also: 0% is about no effect
Procedure, shortened: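 Readings come from a cell-based beta-arrestin complementation format: CHO-K1 GPR32 stable cells (2,500/well) treated 90 min with compounds, then beta-Gal substrate added for 1 h before chemiluminescence imaging.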

UniProt O75388, sequence (O75388 whole entry, looked up): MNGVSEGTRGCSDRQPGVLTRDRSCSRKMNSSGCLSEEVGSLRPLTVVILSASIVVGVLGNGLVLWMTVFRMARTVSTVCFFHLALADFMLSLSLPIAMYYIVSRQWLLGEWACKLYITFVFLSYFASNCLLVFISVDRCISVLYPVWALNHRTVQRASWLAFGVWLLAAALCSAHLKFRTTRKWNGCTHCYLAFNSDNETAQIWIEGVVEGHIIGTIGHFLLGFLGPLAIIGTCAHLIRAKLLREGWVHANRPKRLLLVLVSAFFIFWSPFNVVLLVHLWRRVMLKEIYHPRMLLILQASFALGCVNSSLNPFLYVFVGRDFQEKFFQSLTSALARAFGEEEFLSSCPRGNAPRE

Compound	activation
COc1ccc2nc3sc(C(=O)N4CCN(c5ccc(F)cc5)CC4)cc3cc2c1	inactive: -1.53%
Cc1cc2oc(C(=O)Nc3sc4c(c3C(=O)NCc3ccccc3)CCCC4)cc(=O)c2cc1C	inactive: -3.06%
COc1ccc(CNS(=O)(=O)c2ccc(F)c(C(=O)Nc3c(C)cc(C)cc3C)c2)cc1	inactive: 11.5%
CCOC(=O)c1cc(-c2ccc(OC)cc2)n(CCC(=O)Nc2cccc(C(C)=O)c2)c1C	inactive: -15.6%
COc1cccc(-c2nc3c(c(SCc4ccccc4Cl)n2)Cc2c(CO)cnc(C)c2O3)c1	inactive: 24.6%
CN(C)c1ccc(CNC(=O)CN2C(=O)CCn3nc(-c4cn(C)c5ccccc45)cc32)cc1	inactive: 30.4%
CCC(C)NC(=O)CSc1nnc(-c2ccc(C)cc2)c(-c2ccc(C)cc2)n1 (configuration not stated)	inactive: -29%
COCCCNC(=O)c1sc2nc(C)c(C(=O)Nc3ccc(C)cc3C)c(-c3ccc(Br)cc3)c2c1N	inactive: -1.4%
COc1ccc(-c2noc(CN(C(=O)Cc3ccc(C)cc3)C(C)C)n2)cc1	inactive: 26.9%
CCCN(CCC)C(=O)C1CCCN(c2ncnc3onc(-c4ccc(F)cc4)c23)C1 (configuration not stated)	inactive: -3.51%
Cc1ccc(CSCCC(=O)N2CCN(c3cc(C)ccc3C)CC2)cc1	inactive: -16.1%
COc1cccc(CNC(=O)C2CCN(C(=O)c3sccc3-n3cccc3)CC2)c1	inactive: -15%
O=C(NCCCO)C(=O)Nc1c2c(nn1-c1ccccc1)CSC2	inactive: -17.1%
CCCN(CCC)C(=O)c1cn(CC)c2ccc(S(=O)(=O)N3CCCCC3)cc2c1=O	inactive: -8.13%
CCC(CC)C(=O)NCc1nc2cccnc2n1Cc1ccc(F)cc1	inactive: -9.22%
Cc1cn2c(=O)cc(COC(=O)c3ccccc3F)nc2s1	inactive: 4.98%
Cc1ccc(CNS(=O)(=O)c2cc3c(cc2C)N(C)CCO3)cc1	inactive: -19.7%
CCc1ccc(NC(=O)CSc2nc3c(sc4ccccc43)c(=O)n2CCN(CC)CC)cc1	inactive: 33.8%
Nc1nc2c(cnn2CCc2ccccc2)c2nc(-c3ccco3)nn12	inactive: -1.57%
O=C(CN1C(=O)C2(SCC(=O)N2c2ccccc2)c2ccccc21)NCCc1ccccc1 (configuration not stated)	inactive: -5.7%
Cc1ccc(C(=O)Nc2ccccc2C(=O)OCc2cc(=O)n3nc(C4CC4)sc3n2)cc1	inactive: -3.37%

Compound	activation
COc1cc(C)ccc1OCCSc1nc2ccc(NC(=O)c3cccs3)cc2s1	inactive: -1.73%
COc1cccc(C(=O)Nc2nc3nc(-c4ccccc4)cc(=O)n3[nH]2)c1	inactive: 25.3%
O=C(Cn1c(=O)nc(-c2ccccc2)c2ccccc21)NCCc1ccccc1	inactive: -13.2%
CCOC(=O)c1c(-c2ccc(C)cc2)csc1NC(=O)c1cc(=O)c2cc(C)ccc2o1	inactive: -14.6%
O=C1c2oc3ccccc3c(=O)c2C(c2cccc(O)c2)N1c1nncs1 (configuration not stated)	inactive: -17.7%
COc1cccc(CNC(=O)C2=C(C)C(=O)OC23CCN(C(C)=O)CC3)c1OC	inactive: -6.14%
COc1ccc(-c2oc3ncn4nc(COc5cccc(C)c5C)nc4c3c2-c2ccc(OC)cc2)cc1	inactive: -8.73%
COc1cc(Nc2nc(SCc3ccc(Cl)cc3)nc3ccccc23)cc(OC)c1	inactive: -22.9%
CC(=O)c1ccc(NC(=O)CN2C(=O)CN(C)C(=O)c3ccccc32)cc1	inactive: 1.63%
CN(C)c1cccc(C(=O)N2CCC(c3c[nH]c4ccccc34)(c3c[nH]c4ccccc34)CC2)c1	inactive: 4.24%
Cc1cccc(CNC(=O)c2ccc(N3Cc4ccccc4Oc4ncccc43)s2)c1	inactive: -13.1%
CCC(C(=O)NCc1cc(OC)ccc1OC)n1nc(C)c2sc3ccccc3c2c1=O (configuration not stated)	inactive: 5.09%
COc1cc(C(=O)Nc2ccc(NC(=O)c3ccc(C(C)(C)C)cc3)cc2)cc(OC)c1OC	inactive: 8.41%
O=C(COCc1cc(-c2cccs2)on1)N1CCN(c2ccccc2)CC1	inactive: -21.1%
CC(C)c1ccc(N2C(=O)CSC23C(=O)N(Cc2cccc(F)c2)c2ccccc23)cc1 (configuration not stated)	inactive: -15.6%
COc1ccccc1C(=O)Nc1ccc2nc(SCCOc3ccccc3C)sc2c1	inactive: -7.61%
Fc1ccc(NCc2nnc3n2CCCCC3)cc1Cl	inactive: -8.37%
COc1ccc(OC)c(CNC(=O)C2CCCN(c3ncnc4onc(-c5ccc(F)cc5)c34)C2)c1 (configuration not stated)	inactive: 3.09%
Cc1ccc(/C=C(\C#N)c2nc(-c3ccc(-c4ccccc4)cc3)cs2)cc1	inactive: 1.81%
CCOC(=O)c1cccc(NC(=O)CCS(=O)(=O)c2ccc3c(c2)CC(=O)N3C)c1	inactive: -8.22%
Cc1ccc(S(=O)(=O)C2(C(=O)Nc3ccc(Cl)c(C(F)(F)F)c3)CC2)cc1	inactive: 7.48%

Compound	activation
CCOc1ccccc1CNC(=O)CCc1c(C)nn(-c2ccc(N3CCCC3)nn2)c1C	inactive: -5.69%
COc1ccc(OC)c(C(=O)CC2(O)C(=O)N(Cc3ccccc3C)c3ccccc32)c1 (configuration not stated)	inactive: -21.5%
Cc1ccc(-n2c(=O)c3cccnc3n2CC(=O)Nc2cc(C)cc(C)c2)cc1	inactive: 1.83%
COc1ccccc1CNC(=O)Cn1c(=O)nc(-c2ccccc2F)c2cc(Cl)ccc21	inactive: -0.255%
CC(C)c1ccc(NC(=O)Cn2c(=O)n(CC3CCC(C(=O)NCCc4ccccc4)CC3)c(=O)c3ccccc32)cc1 (configuration not stated)	inactive: 13.4%
COC(=O)c1ccc(Cl)cc1NC(=O)NCCc1c(C)nn(C)c1C	inactive: 32.8%
Cc1c(C(=O)N2CCOCC2)oc2c1-c1nn(CC(=O)NCc3cccc(F)c3)cc1CC2	inactive: -3.97%
CC(C)(C)C1CCc2c(sc(NC(=O)Cn3nnc(-c4ccccc4Cl)n3)c2C#N)C1 (configuration not stated)	active: 89.3%
COc1ccc(-n2ccnc2SCC(=O)Nc2ccc3c(c2)OCO3)cc1	inactive: -15.6%
Cc1ccc(CNc2ccc(-c3nc(-c4ccncc4)no3)cc2[N+](=O)[O-])cc1	inactive: 6.77%
CCOC(=O)c1c(C)[nH]c(C)c1S(=O)(=O)N1CCC(C(=O)Nc2cc(C)ccn2)CC1	inactive: -1.75%
Cc1ccc(Cl)cc1N1CCN(C(=O)C2CCC(CNS(=O)(=O)c3cccs3)CC2)CC1 (configuration not stated)	inactive: -18.8%
Cc1cccc(N2CCN(C(=O)CS(=O)(=O)c3cccc4nsnc34)CC2)c1C	inactive: 23.5%
Cc1ccc2nc(COc3ccccc3NC(=O)COc3ccc(F)cc3)cc(=O)n2c1	inactive: -5.26%
CCc1ccccc1NS(=O)(=O)c1ccc2[nH]cc(C(=O)N(CC(C)C)CC(C)C)c(=O)c2c1	inactive: -8.34%
Cc1ccc(-c2nc(S(=O)(=O)c3ccccc3)c(N3CCN(c4ccccc4)CC3)o2)cc1	inactive: -3.08%
CCc1ccccc1N(CC)C(=O)c1c(C)oc2ncn(C)c(=O)c12	inactive: -10.9%
COc1ccccc1N1CCN(C(=O)c2cc(CC(C)C)on2)CC1	inactive: 22.4%
Cc1cccc(C(C)C)c1NC(=O)Cn1c(=O)oc2cc(S(=O)(=O)N3CCCC3)ccc21	inactive: -9%
COc1ccc(-c2nc(SCC(=O)Nc3ccc4c(c3)OCCO4)c(-c3ccc(F)cc3)[nH]2)cc1	inactive: 15.8%
O=C(Nc1ccccc1C(=O)OCc1cc(=O)n2c3c(sc2n1)CCCC3)c1ccc(F)cc1	inactive: -22.7%

Compound	activation
COc1ccc(NC(=O)C2CCN(S(=O)(=O)c3ccc4c(c3)CCCC(=O)N4)CC2)cc1OC	inactive: -20.8%
CCc1ccc2nc(N(CCN(CC)CC)C(=O)c3cccs3)sc2c1	inactive: 44.3%
COc1ccc(OC)c(/C=C/c2nc3ccccc3c(=O)n2-c2ccc(F)c(Cl)c2)c1	inactive: -12.9%
Cc1ccc(NC(=O)C2CCCN(S(=O)(=O)c3c(C)n[nH]c3C)C2)c(C)c1 (configuration not stated)	inactive: -1.48%
COCc1nnc(NC(=O)c2cc(OC)c(OC)c(OC)c2)s1	inactive: 5.35%
CCC(C(=O)Nc1cc(C)ccc1C)n1c(=O)c(C(F)(F)F)nc2ccccc21 (configuration not stated)	inactive: 5.98%
COc1ccc(C(=O)/C=C/c2cn(CC(O)CN3CCc4ccccc43)c3ccccc23)cc1OC (configuration not stated)	inactive: 16.6%
COc1cccc(CNS(=O)(=O)c2cnc(N)nc2)c1	inactive: -9.89%
COCC(=O)n1nc(-c2ccco2)nc1NCc1ccccc1Cl	inactive: -11.2%
Nc1nc2c(ncn2COC(CO)CO)c(=O)[nH]1	inactive: -5.3% and inactive: -1.37%
Cc1cc(C)n(-c2nc(C)c(C)c(=O)n2CC(=O)Nc2ccc([N+](=O)[O-])cc2)n1	inactive: -13.4%
COc1cc(OC)cc(C(=O)Nc2ccc(-c3nc4ccccc4s3)cc2C)c1	inactive: 3.33%
CC12C(=O)OC(=O)C1(C)C1CCC2O1 (configuration not stated)	inactive: -34.4%
COc1ccc(CCNC(=O)c2ccc3c(c2)N(Cc2ccc(F)cc2)C(=O)c2ccccc2S3(=O)=O)cc1OC	inactive: -36%
C[n+]1c2cc(N)ccc2cc2ccc(N)cc21 (tested in a mixture with another compound)	inactive: 14.7%
COc1ccccc1CNC(=O)CCc1c(C)c2cc3c(C)c(C)oc3cc2oc1=O	inactive: -21.1%
CCc1nn(CC(=O)NCc2ccco2)c(=O)c2cc3c(OC)cccc3n12	inactive: -5.63%
C=CCc1cccc2cc(-c3nc4ccc(C)cc4[nH]3)c(=O)oc12	inactive: -14.7%
CCOC(=O)c1ccc(NC(=O)Cn2cc(C(=O)C3CC3)c3ccccc32)cc1	inactive: -9.23%
